Reference: PubChem BioAssay AID686971 (National Center for Advancing Translational Sciences (NCATS), 2013)
“And” between values parts separate entries of the source, which are not always exact repeats. Identical values can stand only once. About 7,500 (2.1%) of roughly 360,000 compounds were called active. Inconclusive means that the source gave no clear call. Such entries were picked first, then a sample of the others. The call rests on the fitted dose curve; in most records, active means well fitted cell-killing curve with a large enough effect; inconclusive means small, poorly fitted or top-dose-only effect, or effect the other way, or another doubt; inactive means no such curve, though single readings can be large or run the other way. Potencies of inconclusive entries are doubtful fits and often do not repeat.
Potency means the concentration at half of the fitted maximal effect; tags describe the fitted curve by direction and shape.

Assay: qHTS for induction of synthetic lethality in tumor cells producing 2HG: qHTS for the HT-1080-IDH1KD cell line;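 on activity, negative = toxicity: 0% = DMSO wells and -100% = cell-free medium wells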
Settings: HT-1080 IDH1 knockdown viability, ATP luminescence, 48 h; activity, negative = toxicity: at 46.1 µM (top of the series) unless noted
Method in brief: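 IDH1KD HT-1080 cells, 750/well, RPMI + 5% FBS; compound pinned after 2 h settling; 48 h, 37 °C; CellTiter-Glo luminescence; % activity normalised to DMSO and no-cell wells; curves fitted, classed by r2 and efficacy.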
For CSc1ccc2c(c1)N(CCC1CCCCN1C)c1ccccc1S2 (centres undefined), the Potency was inconclusive: 15.8 µM [cytotoxic, single point] and inconclusive: 29.1 µM [cytotoxic, single point]. In the case of COc1ccc(-n2nc(C#N)c(Cl)cc2=O)cc1, the Potency is reported as active: 13 µM. In the case of Oc1ccc(N=Nc2ccc(Br)cc2)c(O)c1, the Potency is reported as inconclusive: 29.1 µM [cytotoxic, single point]. For Cc1[nH]c2ccccc2c1N=Nc1ccccc1F, the Potency was inconclusive: 18.4 µM [cytotoxic, single point]. With COC(=O)c1ccc(OCC(O)CNC2CCCC2)cc1 (centres undefined) the Potency was “inactive”. With Cc1noc(C)c1COc1cccc(C(=O)OCC(=O)N2CC(=O)Nc3ccccc32)c1 the Potency was active: 1.84 µM. In the case of COC(=O)C1OC(OC2CC[C@]3(C)C(CC[C@@]4(C)[C@@H]3CC=C3[C@@H]5CC(C)(C)CC[C@]5(C(=O)OC5OC(CO)C(O)C(O)C5O)CC[C@]34C)C2(C)C)C(O)C(O)C1O[C@H]1OCC(O)C(O)C1O (some centres undefined), the Potency is reported as inconclusive: 29.1 µM [cytotoxic, single point]. With CCOc1ccc(-n2c(-c3ccccc3)c[n+]3c2CCC3)cc1 the Potency was active: 8.2 µM. In the case of Oc1ccccc1C=NNC(=S)Nc1ccc(F)cc1, the Potency is reported as active: 5.8 µM. With COc1ccccc1OCCNC(=O)CCC(=O)N1CCOCC1 the Potency was “inactive”. For CN1CCCCC1CCN1c2ccccc2Sc2ccc(S(C)=O)cc21 (centres undefined), the Potency was inconclusive: 29.1 µM [cytotoxic, single point]. With COc1ccc(-c2cc(C(=O)N3CCCCCC3)c3ccccc3n2)c(OC)c1 the Potency was “inactive”. In the case of COc1ccc(NC(=O)c2cc(-c3cccnc3)nc3ccc(C)cc23)cc1OC, the Potency is reported as inconclusive: 5.62 µM [cytotoxic, partial curve]. In the case of Cc1ccc(-c2nc(NC(=O)c3nn(C)cc3[N+](=O)[O-])sc2C)cc1, the Potency is reported as active: 11.6 µM. For Cc1ccccc1OCC(=O)Nc1ccccc1N1CCCCC1, the Potency was inconclusive: 25.1 µM [cytotoxic, single point]. For CCOP(=O)(OCC)c1nc(-c2ccc(Cl)cc2Cl)oc1N1CCCCC1, the Potency was active: 23.1 µM. With Cc1ccc(C)c(Nc2c([N+](=O)[O-])cc(C(=O)N3CC(=O)Nc4ccccc43)cc2[N+](=O)[O-])c1 the Potency was inconclusive: 9.2 µM [cytotoxic, partial curve]. With CC1(C(=O)NS(=O)(=O)c2ccc(F)cc2F)CCN1C(=O)c1ccccc1 (centres undefined) the Potency was inconclusive: 29.1 µM [rising, single point]. With Cc1cc(C(=O)COC(=O)c2ccc3c(c2)OCO3)c(C)n1CC1CCCO1 (centres undefined) the Potency was inconclusive: 8.2 µM [rising, partial curve]. With COc1ccc(N=C2SC(CC(=O)Nc3cccc(Cl)c3)C(=O)N2Cc2ccco2)cc1 (centres undefined) the Potency was active: 16.4 µM. With CC(C)NCC(=O)C12CC3CC(CC(C3)C1)C2 the Potency was “inactive”. For O=C(Oc1oc(-c2ccco2)nc1C=Nc1ccccc1)c1ccco1, the Potency was “inactive”. With CCCOC(=O)c1ccc(NC(=O)c2c(Cl)ccc(Cl)c2OC)cc1 the Potency was inconclusive: 16.4 µM [cytotoxic, single point]. In the case of Cc1ccc(S(=O)(=O)Nc2ccc3cn[nH]c3c2)cc1, the Potency is reported as “inactive”. With CCN(CC)S(=O)(=O)c1ccc(NC(=O)COC(=O)CNC(=O)C2CCCCC2)cc1 the Potency was “inactive”. In the case of COc1ccc(/C=C/C(=O)Nc2ccc(C)cc2)cc1S(=O)(=O)N1CCOCC1, the Potency is reported as inconclusive: 25.9 µM [cytotoxic, single point]. In the case of CC(C)c1ccc2c(c1)c(SC(C)(C)C)c(CC(C)(C)C(=O)O)n2Cc1ccc(Cl)cc1, the Potency is reported as active: 18.4 µM. For Cc1nn(-c2ccccc2)c(Cl)c1/C=N/NC(=O)c1ccccc1NS(=O)(=O)c1cccs1, the Potency was inconclusive: 20.6 µM [cytotoxic, partial curve]. In the case of CCC(C)NS(=O)(=O)c1ccc(NC(=O)CCC2CCCCC2)cc1 (centres undefined), the Potency is reported as inconclusive: 35.5 µM [cytotoxic, single point]. For CC(C)COc1ccc(-c2nn(-c3ccccc3)cc2CO)cc1, the Potency was “inactive”. With CC(=O)Nc1nnc(SCc2ccccc2F)s1 the Potency was “inactive”. For COc1ccc(OC)c(C2C3=C(COC3=O)Nc3cc4c(cc32)OCO4)c1 (centres undefined), the Potency was active: 0.517 µM. For C[C@@H]1CN([C@@H](C)CO)C(=O)c2cc(NC(=O)CCC(F)(F)F)ccc2O[C@H]1CN(C)Cc1ccc(Cl)c(Cl)c1, the Potency was active: 23.1 µM. For COc1ccc(CCNC(=O)c2ccc(=O)[nH]c2)cc1OC, the Potency was “inactive”. With CCN(CC)Cc1c(C(=O)N/N=C(\C)c2ccncc2)nnn1-c1nonc1N the Potency was “inactive”. For CN1CCCN(S(=O)(=O)c2ccc(O)c(C(=O)O)c2)CC1, the Potency was “inactive”. With N/C(=N\OC(=O)c1ccc2ccccc2c1)c1ccc(Br)cc1 the Potency was inconclusive: 14.6 µM [rising, partial curve]. With COc1ccccc1CCC(=O)Nc1ccc2c(c1)c(=O)n(C)n2Cc1ccc(F)cc1 the Potency was active: 5.8 µM. For COc1ccc(-c2cccc([C@H]3[C@@H]4C=CC[C@@H](C)[C@@H]4C(=O)N3Cc3ccccc3)c2)cc1, the Potency was inconclusive: 29.1 µM [cytotoxic, single point]. With CN1OC[C@@H]2CN(C(=O)CCc3ccccc3)[C@H](c3cccc(-c4ccc(C#N)cc4)c3)C[C@@H]21 the Potency was “inactive”. For Cc1cccc(C(=O)N2CCc3cc(-c4csc(NC(=O)CN5CCCC5)n4)ccc32)c1, the Potency was active: 16.4 µM. For Cc1cccc(NC(=O)CNC(=O)[C@H]2O[C@@H](n3ccc(=O)[nH]c3=O)[C@H](O)[C@@H]2O)c1C, the Potency was “inactive”. For COc1ccc([C@H]2CC(=O)C=C(c3ccc(O)cc3)C2)cc1OC, the Potency was “inactive”. With Cc1ccc(-n2cc(CN(C)Cc3nccn3C)c(-c3ccc(F)cc3)n2)cc1 the Potency was inconclusive: 29.1 µM [cytotoxic, single point]. With C=CCN(CC=C)S(=O)(=O)c1ccc(C(=O)Nc2nc3c(s2)CCc2ccccc2-3)cc1 the Potency was active: 14.6 µM. In the case of Cc1onc(-c2c(F)cccc2Cl)c1C(=O)Nc1cccc2nsnc12, the Potency is reported as inconclusive: 35.5 µM [cytotoxic, single point]. In the case of COc1ccc(CNC(=O)Cc2cn(C)c3ccccc23)c(OC)c1, the Potency is reported as “inactive”. For Cc1cc(C)n2nc(NCc3cccc(Br)c3)nc2n1, the Potency was inconclusive: 29.1 µM [cytotoxic, single point]. For CCCCCCC(C)NC(=S)Nc1cc(S(=O)(=O)N(C)C)ccc1C (centres undefined), the Potency was inconclusive: 18.4 µM [cytotoxic, single point]. For Cc1ccccc1OS(=O)(=O)c1cccc([N+](=O)[O-])c1, the Potency was “inactive”. For O=C1OC2(c3ccccc31)c1ccccc1-c1ccccc12, the Potency was inconclusive: 20.6 µM [cytotoxic, single point]. With CCOC(=O)c1cnc(-n2nc(C)cc2C)nc1NC the activity, negative = toxicity was inconclusive: -106%. In the case of COc1ccc2c(c1)/C(=C\c1cccc(/C=C3/C(=O)Nc4ccc(OC)cc43)n1)C(=O)N2, the Potency is reported as active: 3.26 µM. With CC(=O)Nc1ccc(NC(=O)C(C)OC(=O)C2CCN(S(=O)(=O)c3ccc4c(c3)OCCO4)CC2)cc1 (centres undefined) the Potency was “inactive”. In the case of COP(=O)(OC)OC(C(=O)c1ccccc1)c1ccccc1 (centres undefined), the Potency is reported as “inactive”. With C[C@@H]1CN([C@@H](C)CO)C(=O)CCCn2nncc2CO[C@@H]1CN(C)S(=O)(=O)c1ccc(-c2ccccc2)cc1 the Potency was “inactive”. For Cc1cccc(/C=N\NC(=O)c2ccc(Cl)cc2)c1O, the Potency was active: 3.26 µM. With CCO[C@@H]1OC(C(=O)NCc2ccccc2)=C[C@H](c2ccc(C(F)(F)F)cc2)[C@H]1CCCO the Potency was inconclusive: 29.1 µM [cytotoxic, single point]. In the case of CCOC(=O)C1=C(C)NC2=C(C(=O)OC2)C1c1ccccc1 (centres undefined), the Potency is reported as active: 20.6 µM. In the case of N#CC(=Nc1ccccc1)c1ccccc1, the Potency is reported as “inactive”. In the case of Cc1ccnc(Nc2nc3ccccc3o2)n1, the Potency is reported as inconclusive: 11.6 µM [cytotoxic, partial curve]. With Cc1ccc2nc(NC(=O)CN3C(=O)NC4(CCCCC4)C3=O)sc2c1 the Potency was inconclusive: 13 µM [cytotoxic, partial curve]. For Cc1ccc2cc(CN(CCCN3CCOCC3)C(c3nnnn3Cc3ccco3)C(C)C)c(=O)[nH]c2c1C (centres undefined), the Potency was inconclusive: 35.5 µM [cytotoxic, single point]. With C[C@H]1CCC[C@]2(C)C[C@H]3OC(=O)C(CN4CCCCCC4)[C@H]3C=C12 (some centres undefined) the Potency was inconclusive: 20.6 µM [cytotoxic, single point]. With O=C1C(NS(=O)(=O)c2cccs2)=C(N2CCOCC2)C(=O)c2ccccc21 the Potency was inconclusive: 18.4 µM [cytotoxic, single point]. For COc1ccc(C2CC(C(F)(F)F)n3nc(C(=O)O)cc3N2)cc1 (centres undefined), the Potency was “inactive”. For O=C(NCC(c1ccco1)N1CCN(c2ccccc2F)CC1)c1ccc2c(c1)OCO2 (centres undefined), the Potency was inconclusive: 29.1 µM [cytotoxic, single point]. In the case of c1ccc(-c2nc(NCc3cccnc3)c3ccccc3n2)cc1, the Potency is reported as inconclusive: 22.4 µM [cytotoxic, single point]. For O=C(CN(C1CCCCC1)S(=O)(=O)c1ccc(F)cc1)NCC1CCCO1 (centres undefined), the Potency was active: 4.61 µM. For COc1ccc(OC)c(NC(=O)c2sc3nc(C)cc(C)c3c2N)c1, the Potency was inconclusive: 29.1 µM [rising, single point]. With Cc1cc(C)cc(CC(Cc2nc3ccccc3[nH]2)c2nc3ccccc3[nH]2)c1 (centres undefined) the Potency was inconclusive: 29.1 µM [cytotoxic, single point]. In the case of C=CCSc1n[nH]c(-c2ccc(OCCC)cc2)n1, the Potency is reported as active: 8.91 µM. With O=C(Nc1ncccc1O)c1ccc(S(=O)(=O)Nc2ccccc2)cc1 the Potency was active: 9.2 µM. With Cc1cc(Cl)ccc1OC(C)C(=O)Nc1ccc(C(=O)Nc2ccccc2C(=O)O)cc1 (centres undefined) the Potency was inconclusive: 23.1 µM [cytotoxic, single point].
